What was measured:
[1] = tested on: IL-6 triggered serum amyloid-A (SAA) protein release; test: Serum Amyloid A (SAA) mouse model; assay type: in vivo; conditions: Balb/c mice
Protocol: The IL-6 targeting Z variant Z06814 (SEQ ID NO:1512) and a control Z variant Z04726 (SEQ ID NO:1535) binding an irrelevant target, were cloned and produced in fusion with the ABD variant PP013 (SEQ ID NO:1554) as described in Example 2. Four groups of Balb/c mice (n=8) were injected subcutaneously (s.c.) with various doses (0, 0.025, 2.5 or 25 mg/kg body weight) of Z06814-ABD 9 h prior to intraperitoneal (i.p.) administration of hIL-6 at 5 μg/kg (R&D Systems). A fifth group of mice (n=8) received 25 mg/kg of Z04726-ABD. Two additional control groups of mice received PBS (n=4) and 25 mg/kg of Z06814-ABD (n=8), respectively, but no subsequent IL-6 injection. After 20 h, the blood was taken by cardiac puncture and serum was collected.
Serum was assessed for the content of murine SAA by ELISA (Tridelta) according to the manufacturer's instructions. In brief, diluted serum samples were added to SAA-precoated plates together with anti-SAA-HRP. The plates were incubated for 1 h and then washed four times. TMB substrate was added for 20 min and the reaction was stopped with stop solution. The absorbance was measured at 450 nm using a microplate reader (Victor^3, Perkin Elmer).

[2] = tested on: IL-6 trans-signaling dependent secretion of MCP-1 in HUVECs; test: HUVEC trans-signaling assay, MCP-1 production; assay type: cell-based, human; conditions: fusions with ABD variant PP013, in the presence of HSA
Protocol: To address the trans-signaling pathway, a second assay was used. Herein, human umbilical vein endothelial cells (HUVECs) were stimulated with hIL-6 and soluble hIL-6Rα and the readout was the production of monocyte chemoattractant protein-1 (MCP-1). HUVECs (Lonza) were grown in EGM-2 bullet kit media (Lonza) and passaged in culture no more than eight times. Cells were grown until 75% confluence before use. Cells were detached using trypsin/EDTA (Lonza), resuspended and washed once in fresh medium. Next, cells were counted and dispensed into 96 well flat bottom plates at a density of 2×10^4 cells per well. Cells were cultured overnight at 37° C. in a humidified 5% CO2 atmosphere. […] The pre-mixed solutions with the test molecules and hIL-6/hIL-6Rα were then transferred to wells containing HUVECs, which were incubated for 24 h at 37° C. in a humidified 5% CO2 atmosphere. Cell free supernatant was collected after the incubation period and human MCP-1 levels were determined by sandwich ELISA using the MCP-1 Duoset ELISA development system (R&D Systems).
Half area 96-well ELISA plates were coated with anti-MCP-1 capture antibody (R&D Systems) at a concentration of 1 μg/ml. Plates were incubated overnight at 4° C., washed twice in tap water and blocked for 1 h in PBSC. […] The absorbance was measured at 450 nm using a microplate reader (Victor^3, Perkin Elmer).

B1: Z06814-ABD: Z06814 (SEQ ID NO:1512) fused to PP013 (SEQ ID NO:1554), MGSSLQ-[Z]-VDGS-PP013 (protein)
chain: MGSSLQVDAKYAKEEQRAWREIHLLPNLTIEQMAAFIWKLLDDPSQSSELLSEAKKLNDSQAPKVDGSLAEAKEAANAELDSYGVSDFYKRLIDKAKTVEGVEALKDAILAALP
In the case of B1, the “SAA protein levels versus dose” value ([1]; 0.025, 2.5 or 25 mg/kg s.c. 9 h before hIL-6 5 μg/kg i.p.) is reported as “significantly lower SAA protein levels were measured in a dose-dependent manner”, the “SAA protein levels at the highest dose” value ([1]; 25 mg/kg body weight s.c. 9 h before hIL-6 5 μg/kg i.p.) is reported as “as low as for animals given no hIL-6 injection” and the “inhibition of IL-6 mediated trans-signaling in HUVECs” value [2] is reported as “more potent than tocilizumab”.

Source: patent publication US10669314B2, “Polypeptide” (Affibody AB, priority 2014, dated 2020)
